Measurements: US20170101477A1 (Regeneron, published 2017)

Target: T1, human Leptin (R&D Systems, #398-LP) (human, UniProt P41159)
T1 construct: Bought reagent; also called hLeptin; recombinant human leptin
Experiment: blocking ELISA: 10 nM hLEPR.hFc pre-incubated with titrated soluble hLeptin, then added to plate-coated hLeptin; bound hLEPR.hFc detected with anti-human IgG-HRP, absorbance at 450 nm
Description: These antibody-protein or protein-protein complexes were then incubated for 1.5 hour at room temperature (RT). […] Samples were developed with a TMB solution (BD Biosciences, #555214; substrate A and B mixed at 1:1 ratio as per manufacturer's instructions) to produce a colorimetric reaction and then neutralized with 1M sulfuric acid before measuring absorbance at 450 nm on a Victor X5 plate reader.

- binding result: binds
B1: extracellular domain portion of LEPR protein expressed with a C-terminal human Fc tag (hLEPR.hFc) (Fc fusion)
chain: FNLSYPITPWRFKLSCMPPNSTYDYFLLPAGLSKNTSNSNGHYETAVEPKFNSSGTHFSNLSKTTFHCCFRSEQDRNCSLCADNIEGKTFVSTVNSLVFQQIDANWNIQCWLKGDLKLFICYVESLFKNLFRNYNYKVHLLYVLPEVLEDSPLVPQKGSFQMVHCNCSVHECCECLVPVPTAKLNDTLLMCLKITSGGVIFQSPLMSVQPINMVKPDPPLGLHMEITDDGNLKISWSSPPLVPFPLQYQVKYSENSTTVIREADKIVSATSLLVDSILPGSSYEVQVRGKRLDGPGIWSDWSTPRVFTTQDVIYFPPKILTSVGSNVSFHCIYKKENKIVPSKEIVWWMNLAEKIPQSQYDVVSDHVSKVTFFNLNETKPRGKFTYDAVYCCNEHECHHRYAELYVIDVNINISCETDGYLTKMTCRWSTSTIQSLAESTLQLRYHRSSLYCSDIPSIHPISEPKDCYLQSDGFYECIFQPIFLLSGYTMWIRINHSLGSLDSPPTCVLPDSVVKPLPPSSVKAEITINIGLLKISWEKPVFPENNLQFQIRYGLSGKEVQWKMYEVYDAKSKSVSLPVPDLCAVYAVQVRCKRLDGLGYWSNWSNPAYTVVMDIKVPMRGPEFWRIINGDTMKKEKNVTLLWKPLMKNDSLCSVQRYVINHHTSCNGTWSEDVGNHTKFTFLWTEQAHTVTVLAINSIGASVANFNLTFSWPMSKVNIVQSLSAYPLNSSCVIVSWILSPSDYKLMYFIIEWKNLNEDGEIKWLRISSSVKKYYIHDHFIPIEKYQFSLYPIFMEGVGKPKIINSFTQDDIEKHQSD[gap - human IgG1 Fc]
notes: also called dimeric human LEPR
